From the antibiotic and cytotoxicity screens of Wong et al. (2023)
The list shows a part of the results.

Assays:
HSkMC = human skeletal muscle cells; assay: cytotoxicity call (relative viability < 0.9); settings: 10 µM
HepG2 = assay: cytotoxicity call (relative viability < 0.9); settings: 10 µM
S. aureus RN4220 = assay: growth inhibition call (relative growth <= 0.2); settings: 50 µM

SMILES	cytotoxicity call (HSkMC)	cytotoxicity call (HepG2)	growth inhibition call (S. aureus RN4220)
Cn1c(=O)c(F)c(Nc2ccc(I)cc2F)c2c(=O)n(C[C@@H](O)CO)cnc21	active	active	inactive
C[C@@H]1CCCCO[C@@H](CN(C)C(=O)NC2CCCCC2)[C@@H](C)CN([C@@H](C)CO)C(=O)c2cc(NS(=O)(=O)c3ccc(F)cc3)ccc2O1	inactive	inactive	inactive
C[C@@H]1CCCCO[C@@H](CN(C)C(=O)c2ccccc2)[C@H](C)CN([C@H](C)CO)C(=O)c2cc(NS(=O)(=O)c3ccccc3)ccc2O1	inactive	inactive	inactive
CCN(CC)c1ccnc([C@H]2COCCN2)n1	inactive	inactive	inactive
C=CC(=O)Nc1ccc([C@@H](CCc2ccc(OC)c(OC)c2)OC(=O)[C@@H]2CCCCN2C(=O)C(=O)C(C)(C)CC)cc1	inactive	inactive	inactive
C[C@@H]1CN([C@@H](C)CO)C(=O)c2cc(NC(=O)Nc3ccccc3)ccc2O[C@@H](C)CCCCO[C@@H]1CN(C)S(=O)(=O)c1ccccc1	inactive	inactive	inactive
COc1cccc(C(=O)Nc2ccc3c(c2)C(=O)N(C)[C@H]2CC[C@H](CC(=O)NCC(F)(F)F)O[C@@H]2CO3)c1	inactive	inactive	inactive
CCOc1ccn(-c2ccc(F)cc2)c(=O)c1C(=O)Nc1ccc(Oc2ccnc(N)c2Cl)c(F)c1	inactive	inactive	inactive
C[C@@H]1CN([C@H](C)CO)C(=O)c2cc(NC(=O)C3CC3)ccc2O[C@@H]1CN(C)S(=O)(=O)c1ccc(Cl)cc1	inactive	inactive	inactive
COc1ccc(CN(C)C[C@@H]2OCCCC[C@H](C)Oc3ccc(NC(=O)Nc4ccc(F)cc4)cc3C(=O)N([C@H](C)CO)C[C@@H]2C)cc1	inactive	active	inactive
C[C@H](CO)N1C[C@H](C)[C@H](CN(C)Cc2ccc(Cl)c(Cl)c2)Oc2ccc(NS(=O)(=O)c3ccc(Cl)cc3)cc2C1=O	active	active	inactive
C[C@H]1CN([C@@H](C)CO)C(=O)c2cccc(NC(=O)c3ccc(-c4nccs4)cc3)c2O[C@@H]1CN(C)C(=O)Nc1ccc2c(c1)OCO2	inactive	inactive	inactive
C[C@@H]1CN([C@@H](C)CO)C(=O)c2cc(NC(=O)CCC(F)(F)F)ccc2O[C@@H](C)CCCCO[C@H]1CN(C)Cc1ccccc1	inactive	inactive	inactive
CO[C@@H]1CN(C)C(=O)c2ccc(NC(=O)c3ccc(F)cc3)cc2OC[C@@H](C)N(C(=O)CN(C)C)C[C@@H]1C	inactive	inactive	inactive
CN(Cc1[nH]nc2c1CCCC2)C(=O)Cc1c[nH]c(=O)n(C)c1=O	inactive	inactive	inactive
C[C@@H](O)C#Cc1ccc2c(c1)O[C@H](CN(C)C(=O)CN(C)C)[C@@H](C)CN([C@@H](C)CO)S2(=O)=O	inactive	inactive	inactive
Cc1cc(C(=O)Nc2cccc3c2O[C@@H](CN(C)Cc2ccccc2)[C@H](C)CN([C@H](C)CO)C3=O)n(C)n1	inactive	inactive	inactive
C[C@H]1CCn2cc(nn2)COC[C@@H](Cc2ccccc2)NC(=O)[C@@H](C)CCn2cc(nn2)COC[C@@H](Cc2ccccc2)NC1=O	inactive	inactive	inactive
CCCC#Cc1cnc2c(c1)C(=O)N([C@H](C)CO)C[C@H](C)[C@H](CN(C)S(=O)(=O)c1cn(C)cn1)O2	inactive	inactive	inactive
COc1ccc(S(=O)(=O)Nc2ccc3c(c2)CC(=O)N([C@H](C)CO)C[C@H](C)[C@@H](CN(C)C)O3)cc1	inactive	inactive	inactive
C[C@@H]1CCCCO[C@H](CN(C)C(=O)Nc2cccc3ccccc23)[C@@H](C)CN([C@H](C)CO)C(=O)c2cc(NC(=O)NC3CCCCC3)ccc2O1	inactive	inactive	inactive
COc1ccc(NC(=O)Nc2ccc3c(c2)C(=O)N([C@H](C)CO)C[C@@H](C)[C@@H](CN(C)S(=O)(=O)c2cccs2)OCCCC[C@@H](C)O3)cc1	inactive	inactive	inactive
COCC(=O)Nc1ccc2c(c1)C(=O)N(C)C[C@@H](OC)[C@@H](C)CN(C(=O)c1ccccc1F)[C@@H](C)CO2	inactive	inactive	inactive
COc1ccc(CN(C)C[C@H]2OCCCC[C@@H](C)Oc3ccc(NC(=O)Nc4cccc5ccccc45)cc3C(=O)N([C@@H](C)CO)C[C@H]2C)cc1	active	active	inactive
